Where “and” joins values, the source holds several entries; their conditions need not be identical. Identical values can stand only once.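 Five concentrations, 48 hours, 96-well plates. The concentration for 50% growth inhibition is given as GI50. TGI: concentration producing complete growth inhibition.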
System: NCI-H322M lung
Assay: NCI-60 cell line screen, 48 h

Structure (SMILES)	TGI	GI50 [µM]
CCC(=O)Nc1ccc(NS(=O)(=O)c2ccc(Cl)cc2)cc1	> 100 µM	
CCN(CC)c1ccc(NC(=S)NN(C)C)cc1	> 10 µM	
CC12CC3(C)CC(C)(C1)CC(N=[N+]=[N-])(C2)C3	> 100 µM	
Cc1cc2c(cc1C)NC1=C(N2)OC(c2c[nH]c3ccc(COc4ccccc4)cc23)C1=O (stereo not given)	> 100 µM	
O=c1c(-c2ccccc2)c(SCCN2CCCCCC2)n(-c2ccccc2)c(=S)n1-c1ccccc1	27.2 µM	
C[n+]1c(-c2ccc(NC(=O)c3ccc(C(=O)Nc4ccc(-c5cn6ccccc6[n+]5C)cc4)cc3)cc2)cn2ccccc21	> 100 µM	
Cc1ccc(S(=O)(=O)c2c(O)c3ccc(O)c(C)c3oc2=O)cc1	> 100 µM	
S=C(N/N=C/c1cc(Cl)cc(Cl)c1)NC12CC3CC(CC(C3)C1)C2	> 100 µM	5.23
C/C(=N\O)c1ccc(Nc2cc(-n3nnc4ccccc43)nc3ccccc23)cc1	23.7 µM	2.97
CS(=O)(=O)c1ccc(Cl)c([N+](=O)[O-])c1	35.2 µM	18.8
COc1cc(C2c3cc4c(cc3[C@@H](Nc3ccc(N(C)C)cc3)[C@H]3COC(=O)C23)OCO4)cc(OC)c1O (stereo not given in full)	75 µM and 92.4 µM	9.28
COc1ccc(OC)c(-c2cc(-c3ccccc3)nn2-c2ccc(S(=O)(=O)NC(C)=O)cc2)c1	36.2 µM	18.4
O=C1N[C@@H]2CCC[C@@H]2[C@@H]1c1ccc(Cl)cc1	> 100 µM	
COC(=O)C1=CCON(c2ccccc2)C1c1ccccc1 (stereo not given)	> 100 µM	
O=[N+]([O-])/C(Cl)=C(/C(Cl)=C(Cl)Cl)N1CCCCC1	29.3 µM	
O=C1c2cccnc2S(=O)(=O)N1c1ccc([N+](=O)[O-])cc1	> 100 µM	
C=C1C(=O)O[C@@H]2C[C@@]3(C)CC(=O)C=C(C)[C@@H]3C[C@H]12	> 100 µM	
O=P1(C(O)/C=C/c2ccccc2)N(Cc2ccccc2)[C@@H]2CCCC[C@H]2N1Cc1ccccc1 (stereo not given in full)	51.4 µM	

Structure (SMILES)	TGI	GI50 [µM]
COc1cc(/C=C2\CN(C)CC3=C2Nc2nc(SC)[nH]c(=O)c2C3c2cc(OC)c(OC)c(OC)c2)cc(OC)c1OC (stereo not given)	19.7 µM	6.6
Cc1ccc(C(=O)Nc2ccc(CN3CCN(C)CC3)c(C(F)(F)F)c2)cc1C#Cc1cnc(N)c2ccc(F)cc12	2.16 µM	0.462
CCc1nc(N)nc(N)c1-c1ccc([N+](=O)[O-])c(NCc2ccccc2)c1	38.7 µM	
CC(C)c1ccc2nc3ccc(C(=O)NCCN(C)C)cn3c(=O)c2c1	79.7 µM	
CC(=O)c1cccc(N(/C=C/C(=O)C(F)(F)F)CC(=O)c2ccc(Cl)cc2)c1	> 100 µM	> 100
CCCCN1C(=O)CC2[C@@H]3CCc4cc(OC)ccc4C3CC[C@]2(C)C1=O (stereo not given in full)	> 10 µM	
O=C(C(=O)c1ccc(Cc2ccc(C(=O)C(=O)c3ccccc3)cc2)cc1)c1ccccc1	> 100 µM	
Clc1ccc([O][In]([O]c2ccc(Cl)cn2)[O]c2ccc(Cl)cn2)nc1	> 100 µM	> 100
Cc1cc([N+](=O)[O-])c(C)c2c1[nH]c1ccc(/C(CCC3CCCC3)=N\N)cc12	31 µM	
N=C(N)c1ccc(-c2ccc(-c3ccc(Cl)cc3Cl)o2)cc1	3.05 µM	1.66
Cc1cccc(NS(=O)(=O)c2ccc(N=Nc3c(O)c(C(=O)O)cc4ccccc34)cc2)n1	> 100 µM	
C[C@]12CC[C@@H]3c4ccc(O)c([N+](=O)[O-])c4CC[C@H]3[C@@H]1CC[C@@H]2NS(=O)(=O)c1ccc(C(F)(F)F)cc1	11 µM	3.05
O=C(O)c1cc[c]([Hg][S]c2ncnc3nc[nH]c23)cc1	> 100 µM	15
O=c1[nH]c(=O)n(C2CC(O)C(CO)O2)cc1OC/C=C/Cc1ccccc1 (stereo not given)	> 100 µM	
Nc1cc2c3c(cccc3c1)NC2=O	> 100 µM	
Cc1cc(N(CCNc2ccnc3cc(Cl)ccc23)Cc2ccc3c(c2)OCO3)nc(N2CCN(C)CC2)n1	9.39 µM	2.73
COc1ccc(-c2cc(-c3ccc(Cl)cc3)c(C#N)c(=O)n2CCCCC(=O)Nc2ccccc2N)cc1	> 100 µM	13.9
CCCCCCc1cc2cc(-c3csc(-c4ccc(OC)cc4)n3)c(=O)oc2cc1O	49.8 µM	

— PubChem BioAssay (NCI)
